# ± gives the standard deviation of the averaged measurements. The list shows a part of the results.
# Test system: PfAP2-G AP2 domain (GST-tagged)
# Assay: gcPBM binding intensity (ln(normalized median fluorescence intensity)); higher = stronger DNA binding
# Method in brief: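 Binding intensity is the highest Masliner-normalised natural-log median intensity over replicate spots in either probe orientation. To obtain it, GST-tagged P. falciparum DNA-binding domains made in E. coli were incubated for 1 h on an Agilent 4 × 180k array of primer-extended double-stranded 36-bp intergenic genomic probes plus negative controls. Detection used Alexa488 anti-GST antibody with scanning at 488 nm.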
row,Sequence,gcPBM binding intensity (ln)
1,TGATGAAAATTTTTCTGTACAAAAAGTATGAAGGTA [XGTACX_site8901],11.1 ± 0.51
2,AATTTAATATAATGCACACATAAAAAAAAATTCAAA [CACACA_site2062],9.91 ± 0.13
3,ATGAAAACCATGACGGGTACTCATTTATTATTTTAT [XGTACX_site6724],11.3 ± 0.79
4,ATTTATTTGTTTATTTGTTTATTTGTTTATTTGTTT [CACACA_negctrl_site1386],9.67 ± 0.057
5,ATTGTGTTAATAAAATGTACATTTTCTCTACTTTAA [XGTACX_site1199],10.8 ± 0.29
6,TGTAGAACAAAAAATTGTACATATTTGTAAAAAAAA [XGTACX_site3850],11.1 ± 0.61
7,TATATATATATGTGTAGTACAACAAATATGAAAAAT [XGTACX_site4059],11.7 ± 0.86
8,TTAAGAATCTATACTAGTACATATATGTATACAAGC [XGTACX_site8025],11 ± 0.52
9,ATATATATATGTAATAGTACATATGATAGTTTGTCA [XGTACX_site1545],11 ± 0.74
10,ATTAGTTTTATATATAGTACATATAATTTTGAAGGT [XGTACX_site7445],11.1 ± 0.77
11,ATCCATCTTTTAATTTGTACTTATTCTTTTTTCTTT [XGTACX_site5299],11.2 ± 0.73
12,AAAGATAAATTAAAAAGTACATATTTATTCAATGTA [XGTACX_site8543],11.2 ± 0.71
13,TTGTAATTTATTCAAACACACAATTTGGACCTTTTT [CACACA_site1063],10.3 ± 0.29
14,TATTCATAATTTTAATGTACAAAATGGTTTGTAATA [XGTACX_site8493],10.6 ± 0.33
15,TAAAAAAAACGAACAAGTACACATAAAAAAAAATTA [XGTACX_site5982],11.4 ± 0.86
16,ATTATATCATATATATGTACACATATATAACATGAT [XGTACX_site7],11.4 ± 0.92
17,TATGATATATATAATACACACATATACATAAGATCT [CACACA_site1119],9.98 ± 0.057
18,AATATATATATATTATCACACACTCACGTTTGACAA [CACACA_site8130],9.79 ± 0.16
19,TTATATATATTTAAAAAAATAACATAAATAAATAAA [CACACA_negctrl_site347],9.76 ± 0.19

row,Sequence,gcPBM binding intensity (ln)
1,TTAAATAAAAGGTTTAGTACTTAAAATAAGAAATGA [XGTACX_site6341],11 ± 0.56
2,GTAAATATAAACTCAGCACACAAACATATATATGTC [CACACA_site9326],9.955 ± 0.078
3,CACTTTTTTTTTTACTGTACATATACAAATTAAAAA [XGTACX_site1565],11.4 ± 0.93
4,TTTTATTTATCTTAATGTACACATTTATATATATAT [XGTACX_site8588],11.7 ± 1.3
5,TATAATAATTAAAAGTGTACTAAATTTTTACATATA [XGTACX_site2523],11.3 ± 0.88
6,TGGGTGTAGAACAATTGTACTTTGTAAAAATATAAG [XGTACX_site8464],11 ± 0.47
7,TTTTTTTTCAATGGTTGTACAAAGTAAAACAACAAA [XGTACX_site1582],11.1 ± 0.94
8,ATAAAATGTTAAGGGTGTACTTTACACATCTCCTAT [XGTACX_site4699],11.1 ± 0.67
9,TATAAATAAAGCAGTACACACATTTATTTTAGATAC [CACACA_site7566],11.3 ± 0.87
10,ATAGGGAATTTATGCACACAGTTAAGGGGGAAAATT [CACACA_site5183],10.8 ± 0.49
11,TATATTAAATAAAAAGTGCATGTCTCATAAGATGGA [GTGCAC_site9520],10.1 ± 0.12
12,ATAAACACATCTATATGTACATATATATATATATAC [XGTACX_site347],11.1 ± 0.68
13,ATGTAAATACATATATGTACACAAATATATATATAT [XGTACX_site3537],11.6 ± 1.1
14,TATATAAATATACATTGTACTCAACATTTTCATTAA [XGTACX_site3690],11.2 ± 0.85
15,TTTATACTATAATTATGTACTTATAAAAGGAATAAA [XGTACX_site8027],11.3 ± 0.7
16,TGTATTAATAAAAATACACACATCATATTATAGAAA [CACACA_site7629],9.895 ± 0.078
17,TTAAAAAAAGATTATACACACACATATATAAACATA [CACACA_site8136],9.865 ± 0.092
18,TCCTCTTTTATTTTTACACACGCGTAAACATATATA [CACACA_site667],10.5 ± 0.4
19,TGAAATAAAAAATATAGTACTCGTTCGTAACCAAAA [XGTACX_site413],11.4 ± 0.85

row,Sequence,gcPBM binding intensity (ln)
1,ATGGGTTAAAAATGCACACAAAAAAATATACAGATA [CACACA_site4321],10.3 ± 0.15
2,TATAAGATTATACAAAGTACATATAAATAATATATT [XGTACX_site1917],10.9 ± 0.8
3,ATATATATATAAATATGTACATATATATATTATATA [XGTACX_site120],11.2 ± 0.62
4,TTCAATTTTTTATGAACACACAAAAAAAAAAAAAAA [CACACA_site2533],10.1 ± 0.52
5,ACATAATTAACAAATACACACACACCCACCCACAAA [CACACA_site8069],10.7 ± 0.43
6,ATATATAAGGATGTCACACATAAATATTAACACTAA [CACACA_site5101],10.07 ± 0.085
7,AAGAAAAAATATATATATATATATATATATAATATG [TGCATGCA_negctrl_site417],9.69 ± 0.26
8,ATTTGTGATTTGTGTGTGCACGTATTTACAGAACAA [GTGCAC_site9498],10.9 ± 0.43
9,TTATATTATTTTTATACATGCATTTCTATATATTTT [TGCATGCA_site164],9.89 ± 0.17
10,ATATATATTTCTTAAAGTACATAATAATAAAAATAT [XGTACX_site8981],11 ± 0.71
11,ATAATTATTAAGAGAACATGCAAAATATATATGTTT [TGCATGCA_site503],10.01 ± 0.021
12,AAAGCACCCAGGCACACACACAAAGGAAAAGAAAAA [CACACA_site232],10.1 ± 0.32
13,TTAAAATATGATATATGTACATAATTACTAAAAACA [XGTACX_site276],11.2 ± 0.47
14,GAATAAATTAAAAACGCATGTATCATTACTACATAA [TGCATGCA_site111],9.8 ± 0.014
15,TTTATATTATACTATACATGCATATAATAAAGGTCA [TGCATGCA_site934],9.95
16,ATATATATATATATTTGTACGTATTATGTATTTTTT [XGTACX_site3530],11.5 ± 0.98
17,AATACAATAAAATAGTGTACATATATATTATGTATA [XGTACX_site8258],11.4 ± 0.88
18,ATTATTTCTTTGTGATGTACAAATAAACATGTTGGT [XGTACX_site5636],10.9 ± 0.58
19,TATATATTACATTGTTGTACATATATATTATATATA [XGTACX_site60],11.1 ± 0.8
